{"source": "patent US20060140929A1", "about": "(Merck KGaA, published 2006)", "binders": {"B1": {"name": "hirudin mutein M 18 (I29D L30R) (other)", "chain": "VVYTDCTESGQNLCLCEGSVVCGQGNKCILGSDGEKNQCVTGEGTPKPESHNDGDFEEIPEEYLQ"}}, "target": "thrombin", "experiment": "cell-based or functional assay"}
{"binder": "B1", "values": [{"measurement": "Relative Activity (ratio of variant IC50/WT IC50), chromogenic thrombin inhibition assay", "value": 2.5, "unit": "ratio"}]}
